{"source": "the RNAGym collection of RNA variant scans (doi:10.7554/elife.90254)", "parents": {"B1": {"name": "LINE1-full (parent)", "chain": "UACGUAGGUGGUUUUCCCCUGAUAGUGCUAAGGGGGCCUGGAAGUUUGGACUGGGCAGAGCUCAACACAGCGUGGCAAAGUGGCUGUGGCUAGACUGCCUCUCUGGAUUCCUCGUCACUCAGCAGGGCAUCUCUGAGAGAAAUGCC"}}, "note": "Read counts are not given, so values of variants with three or more changes are uncertain."}
{"variants_of": "B1", "test": "self-cleavage, relative activity (ratio to wild type); higher = more cleavage; in vitro, sequencing; the parent is a self-cleaving ribozyme"}
{"variant": "U39C U100C G127A U130A", "self-cleavage": 2.25}
{"variant": "U39A U46C U52G A57G A78G C90A", "self-cleavage": 0.03}
{"variant": "U39A U47C G49A G97A A136U", "self-cleavage": 0.09}
{"variant": "U39C A69U A77G G135A", "self-cleavage": 0}
{"variant": "U39A U85C A121G A142U", "self-cleavage": 0.09}
{"variant": "G41U A67G G75A U108C U132C", "self-cleavage": 0.37}
{"variant": "C38A U62C C84U U130C", "self-cleavage": 0.04}
{"variant": "C37A U134A A140G", "self-cleavage": 0.46}
{"variant": "U39C A50U A64G U100C U119C", "self-cleavage": 0}
{"variant": "G36A U108C U132A U143A", "self-cleavage": 1.64}
{"variant": "U39C U52A C116U", "self-cleavage": 1.34}
{"variant": "G40A G72A U115A U134C", "self-cleavage": 0.87}
{"variant": "U39C U45G U85A", "self-cleavage": 0.16}
{"variant": "U39A A42G A64G U132A A140G", "self-cleavage": 0.4}
{"variant": "G41A U47C G55A A57G A69U A136U", "self-cleavage": 0.05}
{"variant": "U39C U47C U73C", "self-cleavage": 1.31}
{"variant": "C38U C71U U85C A94G", "self-cleavage": 0.02}
{"variant": "G35C C63U A129G", "self-cleavage": 0.26}
{"variant": "U39C U47C U62G", "self-cleavage": 0}
{"variant": "C37A U85A G126A", "self-cleavage": 0.06}
{"variant": "U39A A43G A57G U62A A79U", "self-cleavage": 0}
{"variant": "U39A A67G A69U", "self-cleavage": 0.09}
{"variant": "U39C A94G C116U", "self-cleavage": 0.14}
{"variant": "G40A U87A U96A", "self-cleavage": 0.03}
{"variant": "G40U A43G A78G U143A", "self-cleavage": 0.94}
{"variant": "U39A A67C U102C A121U", "self-cleavage": 0}
{"variant": "C37U A43U U96A", "self-cleavage": 0.03}
{"variant": "G40A U52A A59G A138G", "self-cleavage": 0.06}
{"variant": "U39C A79U A140G", "self-cleavage": 1.62}
{"variant": "G41U A69G A79U U100A U130C U132C", "self-cleavage": 0.36}
{"variant": "U39A A67U U108C", "self-cleavage": 0.16}
{"variant": "G41U U73A U102C U115A", "self-cleavage": 1.33}
{"variant": "U39C G54U U85C", "self-cleavage": 0.13}
{"variant": "U39A U73C U81C C101A", "self-cleavage": 1.8}
{"variant": "C38A A43G U62A A77G A78U", "self-cleavage": 0.03}
{"variant": "U39A A140G A141G U143G", "self-cleavage": 1.08}
{"variant": "U39A U52A U119C", "self-cleavage": 1.35}
{"variant": "U39A U47C G114A", "self-cleavage": 0.78}
{"variant": "U39C A64G G139U", "self-cleavage": 0.21}
{"variant": "U39G G54U U132C A138G", "self-cleavage": 1.27}
{"variant": "U39C A94G U115C", "self-cleavage": 0}
{"variant": "U39C U45C U132C", "self-cleavage": 1.65}
{"variant": "U39C A43G U47C A138U A140G", "self-cleavage": 1.84}
{"variant": "U39A A65U U85A", "self-cleavage": 0.03}
{"variant": "G35C A57U A69G A94U C113U A140G", "self-cleavage": 0}
{"variant": "G40A A57U A121U G127A", "self-cleavage": 0.03}
{"variant": "U39A U62C A65C A140G", "self-cleavage": 0.68}
{"variant": "C38A C76U U100C U134C", "self-cleavage": 2.5}
{"variant": "G35U U46C A67U C99U C123U", "self-cleavage": 0.11}
{"variant": "G36A U96C A141G", "self-cleavage": 0.09}
{"variant": "G36A U47C U132A", "self-cleavage": 0.92}
{"variant": "C38U U115C G126A A141G", "self-cleavage": 1.78}
{"variant": "U39C A79U U100A", "self-cleavage": 0.49}
{"variant": "U39A U102C U130C A136G", "self-cleavage": 1.2}
{"variant": "G36A A64U A78C A92G", "self-cleavage": 0.19}
{"variant": "G36A U46C C146U", "self-cleavage": 1.24}
{"variant": "U39C U115C U134A", "self-cleavage": 0.53}
{"variant": "U39C A67G A77G C95U", "self-cleavage": 0.06}
{"variant": "U39A C98U C99A U134A", "self-cleavage": 0.1}
{"variant": "G35C U108C U130C", "self-cleavage": 1.04}
{"variant": "C38G U39C G49U A107G", "self-cleavage": 1.11}
{"variant": "U39A U87C U130C", "self-cleavage": 0.32}
{"variant": "U39A A69U A138G", "self-cleavage": 0}
{"variant": "C38U U96C U104C", "self-cleavage": 0.5}
{"variant": "U39C A67U A124G A129G", "self-cleavage": 0}
{"variant": "C37G U46C A64U U132A", "self-cleavage": 0.52}
{"variant": "U39A A65G A124G", "self-cleavage": 0.11}
{"variant": "G35A U104C U115A", "self-cleavage": 1.27}
{"variant": "U39A G44U U47C U73C G114C A141G", "self-cleavage": 2.07}
{"variant": "G36A A43G U45C A142G", "self-cleavage": 0.75}
{"variant": "C37A C71U U81C", "self-cleavage": 0.87}
{"variant": "G40A A57U G82A", "self-cleavage": 0.11}
{"variant": "U39C U46A G114U G135U", "self-cleavage": 0.74}
{"variant": "U39A C51U A67G A129U", "self-cleavage": 0.28}
{"variant": "G35U A57U G97A A140G", "self-cleavage": 0.08}
{"variant": "U39C U109A A117U", "self-cleavage": 1.49}
{"variant": "U39C U100C U112C", "self-cleavage": 1.67}
{"variant": "C37U A42G U85A G89A", "self-cleavage": 0.05}
{"variant": "U39A G40A A140G", "self-cleavage": 1.22}
{"variant": "U39A A50G U119C A138G", "self-cleavage": 0.61}
{"variant": "U39C A79G C113U", "self-cleavage": 1.34}
{"variant": "U39C A67G C76U", "self-cleavage": 0.5}
{"variant": "U39C U52A A69U", "self-cleavage": 0.07}
